Variants at the floor of the assay are shown more often than the library holds them.
B1: TPR 5TU (parent)
chain: GGAUCUUCUCGAUCUAACAAAAAAGACAAAUCUGCCACAAAGCUUGAGAGCAUCUUCGGAUGCAGAGGCGGCAGCCUUCGGUGGCGCGAUAGCGCCAACGUUCUCAACUAUGACACGCAAAACGCGUGCUCCGUUGAAUGGAGUUUAUCAUG

Variants of: B1
Test: polymerase ribozyme fitness, log enrichment relative to wild type (log ratio); higher = more active; in vitro selection for triplet polymerase activity
Method in brief: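 Fitness is a logarithmic measure of how a genotype enriched relative to the wild type, with replicate averages weighted by inverse variance. The logarithm uses base 2, and enrichment came from Illumina sequencing of input and output libraries. Those libraries were PCR-built, transcribed mutants of each subunit of a heterodimeric triplet polymerase ribozyme, passed through one triplicate in vitro selection round that included frozen incubation at −7 °C, gel excision of extended constructs and streptavidin-bead capture. Genotypes were kept only if they had ≥10 input reads and ≥1 read per output.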
In the case of GGAUCUUCUCGAUCUAACAAAAAAGACAAAUCUGCCACAAAGCUUGAGAGCAUCUUCGGAUGCAGAGGCGGCAGCCUUCGGUGGCGCGAUAGCGCUAACGUUUUCAACUAUGACACGCAAAACGCGUGCUCCGUUGAAUGGAGUUUAUCAUG [C96U C103U], the “polymerase ribozyme fitness (log ratio)” value is reported as -1.25. With GGAUCUUCUCGAUCUAACAAAAAAGACAAAUCUGCCACAAAGCUUGAGAGCAUCUUCGGAUGCAGAGGCGGCAGCCUUCGGUGGCGCGAUAGCGCUAACGUUCUAAACUAUGACAGGCAAAACGCGUGCUCCGUUGAAUGGAGUUUAUCAUG [C96U C105A C116G] the “polymerase ribozyme fitness (log ratio)” value was -1.79. In the case of GGAUCUUCUCGAUCUAACAAAAAAGACAAAUCUGCCACAAAGCUUGAGAGCAUCUUCGGAUGCAGAGGCGGCAGCCUUCGGUGGCGCGAUAGCGCUAACGUUCUUAACUAUGACACGCAAAACGCGUGCUCCGUUGAAUGGAGUUUAUCAUG [C96U C105U], the “polymerase ribozyme fitness (log ratio)” value is reported as 0.67. With GGAUCUUCUCGAUCUAACAAAAAAGACAAAUCUGCCACAAAGCUUGAGAGCAUCUUCGGAUGCAGAGGCGGCAGCCUUCGGUGGCGCGAUAGCGCUAACAUUCUCAACUAUGACACGCAAAACGCGUCCUCCGUUGAAUGGAGUUUAUCAUG [C96U G100A G128C] the “polymerase ribozyme fitness (log ratio)” value was at most -4.2. For GGAUCUUCUCGAUCUAACAAAAAAGACAAAUCUGCCACAAAGCUUGAGAGCAUCUUCGGAUGCAGAGGCGGCAGCCUUCGGUGGCGCGAUAGCGCUAACGGUCUCAACUAUGACACGCAAAACCCGUGCUCCGUUGAAUGGAGUUUAUCAUG [C96U U101G G124C], the “polymerase ribozyme fitness (log ratio)” value was -0.75. For GGAUCUUCUCGAUCUAACAAAAAAGACAAAUCUGCCACAAAGCUUGAGAGCAUCUUCGGAUGCAGAGGCGGCAGCCUUCGGUGGCGCGAUAGCGCUAACGUUCACAACUAUGAAACGCAAAACGCGUGGUCCGUUGAAUGGAGUAUAUCAUG [C96U U104A C114A C129G U145A], the “polymerase ribozyme fitness (log ratio)” value was at most -4.2. In the case of GGAUCUUCUCGAUCUAACAAAAAAGACAAAUCUGCCACAAAGCUUGAGAGCAUCUUCGGAUGCAGAGGCGGCAGCCUUCGGUGGCGCGAUAGCGCUAACGUUCUCAACUAUGACACGCAAAACGCGUGCUCCGUUGAAUGGAGUAUAUCUUG [C96U U145A A150U], the “polymerase ribozyme fitness (log ratio)” value is reported as 0.912. In the case of GGAUCUUCUCGAUCUAACAAAAAAGACAAAUCUGCCACAAAGCUUGAGAGCAUCUUCGGAUGCAGAGGCGGCAGCCUUCGGUGGCGCGAUAGCGCUAACGUUCUCAACUAUGACACGCAAAACGCGUGCUCCGUUGAAUGGAGUUUAACAUG [C96U U148A], the “polymerase ribozyme fitness (log ratio)” value is reported as -3.33. For GGAUCUUCUCGAUCUAACAAAAAAGACAAAUCUGCCACAAAGCUUGAGAGCAUCUUCGGAUGCAGAGGCGGCAGCCUUCGGUGGCGCGAUAGCGCUAACGUUCUCAACUAUGACACGCAAAACGCGUGCUCCGUUGAAUGGAGUUUAUCAGG [C96U U151G], the “polymerase ribozyme fitness (log ratio)” value was -4.05. In the case of GGAUCUUCUCGAUCUAACAAAAAAGACAAAUCUGCCACAAAGCUUGAGAGCAUCUUCGGAUGCAGAGGCGGCAGCCUUCGGUGGCGCGAUAGCGCCGACGUUCUCAACUAUGACACGCAAAACGCGUGCUCCGUUGAAUGGAGUUUAUCGUG [A97G A150G], the “polymerase ribozyme fitness (log ratio)” value is reported as -2.82. For GGAUCUUCUCGAUCUAACAAAAAAGACAAAUCUGCCACAAAGCUUGAGAGCAUCUUCGGAUGCAGAGGCGGCAGCCUUCGGUGGCGCGAUAGCGCCGAGGUUCUCAACUAUGACACGCAAAACGCGUGCUCCGUUGAAUGGAGUUUAUCAUG [A97G C99G], the “polymerase ribozyme fitness (log ratio)” value was -0.579. In the case of GGAUCUUCUCGAUCUAACAAAAAAGACAAAUCUGCCACAAAGCUUGAGAGCAUCUUCGGAUGCAGAGGCGGCAGCCUUCGGUGGCGCGAUAGCGCCGACGUUCUCAACUAUGACAUGCAAAACGCGUGCUCCUUUGAAUGGAGUUUAUCAUG [A97G C116U G133U], the “polymerase ribozyme fitness (log ratio)” value is reported as at most -4.2. In the case of GGAUCUUCUCGAUCUAACAAAAAAGACAAAUCUGCCACAAAGCUUGAGAGCAUCUUCGGAUGCAGAGGCGGCAGCCUUCGGUGGCGCGAUAGCGCCGACGUUCUCAACUAUGACACGCAAAAGGCGUGCUGCGUUGAAUGGAGUUUAUCAUG [A97G C123G C131G], the “polymerase ribozyme fitness (log ratio)” value is reported as -2.72. With GGAUCUUCUCGAUCUAACAAAAAAGACAAAUCUGCCACAAAGCUUGAGAGCAUCUUCGGAUGCAGAGGCGGCAGCCUUCGGUGGCGCGAUAGCGCCGACGUUCUCAACUAUGACACGCAAAAUGCGUGCUCCGUUGAAUGGAGUUUAUCAUG [A97G C123U] the “polymerase ribozyme fitness (log ratio)” value was 0.215. For GGAUCUUCUCGAUCUAACAAAAAAGACAAAUCUGCCACAAAGCUUGAGAGCAUCUUCGGAUGCAGAGGCGGCAGCCUUCGGUGGCGCGAUAGCGCCGACGUUCUCAACUAUGACACGCAAAACGCGUGCUACGUUGAAUGGAGUUUAUCAUG [A97G C131A], the “polymerase ribozyme fitness (log ratio)” value was -2.32. With GGAUCUUCUCGAUCUAACAAAAAAGACAAAUCUGCCACAAAGCUUGAGAGCAUCUUCGGAUGCAGAGGCGGCAGCCUUCGGUGGCGCGAUAGCGCCGACGUUCUCAACUAUGACACGCAAAACGCGUGCUCCGUUGAAUGGAGUUUAUCAUA [A97G G152A] the “polymerase ribozyme fitness (log ratio)” value was -3.19. For GGAUCUUCUCGAUCUAACAAAAAAGACAAAUCUGCCACAAAGCUUGAGAGCAUCUUCGGAUGCAGAGGCGGCAGCCUUCGGUGGCGCGAUAGCGCCUAGGUUCUCAACUAUGACACGCAAAACGCGUGCUCCGUUGAAUGGAGUUUAUCAUG [A97U C99G], the “polymerase ribozyme fitness (log ratio)” value was -1.6. For GGAUCUUCUCGAUCUAACAAAAAAGACAAAUCUGCCACAAAGCUUGAGAGCAUCUUCGGAUGCAGAGGCGGCAGCCUUCGGUGGCGCGAUAGCGCCUACGUUCUCAACUAUGACAUGCAAAACGCGUGCUCCGUUGAAUGGAGUUUAUCAUG [A97U C116U], the “polymerase ribozyme fitness (log ratio)” value was -0.695. In the case of GGAUCUUCUCGAUCUAACAAAAAAGACAAAUCUGCCACAAAGCUUGAGAGCAUCUUCGGAUGCAGAGGCGGCAGCCUUCGGUGGCGCGAUAGCGCCUACGUUCUCAACUAUGACACGCAAAACUCGUGCUCCGUUGAAUGGAGUUUAUCAUG [A97U G124U], the “polymerase ribozyme fitness (log ratio)” value is reported as -1.05.

Reference: the RNAGym collection of RNA variant scans (doi:10.1073/pnas.2313332121)
